Data published in US11559518B2, “Endoplasmic reticulum stress regulator comprising benzothiazoimidazolyl compound” (ER Stress Research Institute, Inc., priority 2017, dated 2023).

These compounds were tested on cell death caused by Tunicamycin (assay: Cytoprotective effect: suppression of cell death caused by Tunicamycin (viable cell count)). Conditions: read-out: IC50 for suppressing cell death caused by Tunicamycin.
Procedure: The final concentration of each test compound in the compound evaluation solution was varied and viable cell count was measured to determine the 50% inhibitory concentration (IC50) for suppressing cell death caused by Tunicamycin.

Question: How did the pIC50 turn out when `O=C([O-])CCCc1ccccc1.[Na+]` [4PBA, Sodium 4-phenylbutyrate, reference compound] was run?
Answer: 2.27

Question: How did the pIC50 turn out when `COc1ccc(-c2cn3c(n2)sc2ccccc23)cc1` [Compound No. 17] was run?
Answer: 6.15

Question: With `C[C@H](CCC(=O)NCCS(=O)(=O)O)[C@H]1CC[C@H]2[C@@H]3[C@@H](O)C[C@@H]4C[C@H](O)CC[C@]4(C)[C@H]3CC[C@]12C` [TUDCA, Tauroursodeoxycholic Acid, reference compound] as the compound, how does the pIC50 read?
Answer: 2.68

Question: How did the pIC50 turn out when `COC(=O)c1ccc2c(c1)sc1nc(-c3ccccc3)cn12` [compound 2] was run?
Answer: 6.47

Question: With `Clc1ccc(-c2cn3c(n2)sc2ccccc23)cc1` [compound 3] as the compound, how does the pIC50 read?
Answer: 6.37

Question: `CCc1ccc(-c2cn3c(n2)sc2cc(C(=O)OC)ccc23)cc1` [compound 4] was tested. Which pIC50 did it give?
Answer: 6.39

Question: How did the pIC50 turn out when `Fc1ccccc1-c1cn2c(n1)sc1ccccc12` [compound 5] was run?
Answer: 5.43

Question: How did the pIC50 turn out when `CCN(CC)CCCNC(=O)c1ccc2c(c1)sc1nc(-c3ccc(OC)cc3)cn12` [compound 6] was run?
Answer: 5.17

Question: With `COc1cccc(-c2cn3c(n2)sc2cc(C(=O)NCCCN4CCOCC4)ccc23)c1` [compound 8] as the compound, how does the pIC50 read?
Answer: 5.80

Question: How did the pIC50 turn out when `CCN(CC)CCCNC(=O)c1ccc2c(c1)sc1nc(-c3ccccc3)cn12` [compound 9] was run?
Answer: 5.13

Question: How did the pIC50 turn out when `O=C(NCCCN1CCCCC1)c1ccc2c(c1)sc1nc(-c3ccccc3)cn12` [compound 10] was run?
Answer: 5.04

Question: How did the pIC50 turn out when `CCOC(=O)C1CCN(C(=O)c2ccc3c(c2)sc2nc(-c4ccc(OC)cc4)cn23)CC1` [compound 13] was run?
Answer: 5.30

Question: With `COC(=O)c1ccc2c(c1)sc1nc(-c3cccc(OC)c3)cn12` [compound 14] as the compound, how does the pIC50 read?
Answer: 8.00

Question: With `COC(=O)c1ccc2c(c1)sc1nc(-c3ccc(Cl)cc3)cn12` [compound 15] as the compound, how does the pIC50 read?
Answer: 8.00

Question: How did the pIC50 turn out when `Cc1ccc2c(c1)sc1nc(-c3ccccc3)cn12` [compound 16] was run?
Answer: 5.92

Question: `FC(F)Oc1ccc(-c2cn3c(n2)sc2ccccc23)cc1` [compound 18] was tested. Which pIC50 did it give?
Answer: 5.59

Question: `CCN(CC)CCCNC(=O)c1ccc2c(c1)sc1nc(-c3ccc(F)cc3)cn12` [compound 19] was tested. Which pIC50 did it give?
Answer: 5.10

Question: How did the pIC50 turn out when `CCOc1ccc(-c2cn3c(n2)sc2cc(C(=O)NCCCN4CCCC4=O)ccc23)cc1` [compound 20] was run?
Answer: 5.11

Question: With `O=C(O)c1ccc2c(c1)sc1nc(-c3ccccc3)cn12` [compound 23] as the compound, how does the pIC50 read?
Answer: 4.92

Question: `NC(=O)c1cc(-c2cn3c(n2)sc2ccccc23)ccc1O` [compound 24] was tested. Which pIC50 did it give?
Answer: 5.12

Question: `CS(=O)(=O)c1ccc2c(c1)sc1nc(-c3ccc(Cl)cc3)cn12` [compound 25] was tested. Which pIC50 did it give?
Answer: 7.10

Same assay, conditions: read-out: IC50 for suppressing cell death caused by Tunicamycin; viable cell count; coexistence of Tunicamycin

Question: How did the pIC50 turn out when `CCCC(=O)NCCc1csc(-c2ccc(Cl)cc2)n1` [Azoramide, reference compound] was run?
Answer: 4.07

pIC50: −log10 of the molar value.
